Experimental data from the supplement of paper PMC4967469.
A lower IC50 marks a more sensitive line; fits outside the tested doses are given as limits. AUC is the area under the same curve over the 256-fold range up to the top dose, as a fraction; the more sensitive the line, the further below 1. The top dose, if marked as inferred, comes from the curve model; the source does not state it. For some of these results: Drugs with an entry number were screened twice under separate entries, and the two screens often disagree.

Tests used:
Assay in all cases: Viability of human cancer cell lines after 72 h of drug (GDSC screen)
SB-525334 = compound: Cc1cccc(-c2[nH]c(C(C)(C)C)nc2-c2ccc3nccnc3c2)n1 [SB-525334]; conditions: top dose 20 µM; top dose inferred
Procedure: (§1)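 Human cancer cell lines in 384-well plates, medium with 10% serum, drug for 72 h over a 256-fold dose range (nine 2-fold or five 4-fold steps up to the top dose). Adherent lines were fixed and stained with the nucleic acid dye Syto60, suspension lines read with resazurin; signal relative to control wells, capped at 0 and 100%. One two-parameter sigmoid per drug and line, fitted in a mixed model over all curves with the slope shared within a line.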

Wee1 inhibitor 681640 = compound: O=C1NC(=O)c2c1c(-c1ccccc1Cl)cc1[nH]c3ccc(O)cc3c21 [Wee1 inhibitor 681640]; conditions: top dose 2 µM; top dose inferred
Procedure: as §1

HG-5-113-01 = compound: CNC(=O)c1ccc(Nc2cc(Nc3ccccc3S(=O)(=O)C(C)C)c3cc[nH]c3n2)nc1 [HG-5-113-01]; conditions: top dose 10 µM; top dose inferred
Procedure: as §1

BIRB 0796 = compound: Cc1ccc(-n2nc(C(C)(C)C)cc2NC(=O)Nc2ccc(OCCN3CCOCC3)c3ccccc23)cc1 [BIRB 0796]; conditions: top dose 10 µM; top dose inferred
Procedure: as §1

Olaparib = compound: O=C(c1cc(Cc2n[nH]c(=O)c3ccccc23)ccc1F)N1CCN(C(=O)C2CC2)CC1 [Olaparib]
Procedure: as §1

BMS-536924 = compound: Cc1cc(N2CCOCC2)cc2[nH]c(-c3c(NC[C@@H](O)c4cccc(Cl)c4)cc[nH]c3=O)nc12 [BMS-536924]; conditions: top dose 4 µM; screen: GDSC drug entry 1091; top dose inferred
Procedure: as §1

VX-702 = compound: NC(=O)c1ccc(N(C(N)=O)c2c(F)cccc2F)nc1-c1ccc(F)cc1F [VX-702]; conditions: top dose 2 µM; top dose inferred
Procedure: as §1

[1] = top dose 5 µM, screen: GDSC drug entry 1017, top dose inferred
[2] = top dose 10 µM, screen: GDSC drug entry 1495

Cell Line | AUC (SB-525334) | IC50 (SB-525334) [µM] | AUC (Wee1 inhibitor 681640) | IC50 (Wee1 inhibitor 681640) [µM] | AUC (HG-5-113-01) | IC50 (HG-5-113-01) [µM] | AUC (BIRB 0796) | IC50 (BIRB 0796) [µM] | AUC (Olaparib; [1]) | IC50 (Olaparib; [1]) [µM] | AUC (Olaparib; [2]) | IC50 (Olaparib; [2]) [µM] | AUC (BMS-536924) | IC50 (BMS-536924) [µM] | AUC (VX-702) | IC50 (VX-702) [µM]
CADO-ES1 (Ewing sarcoma, suspension) | 0.497 | 1.22 | 0.963 | > 2 | 0.872 | 9.87 | 0.988 | > 10 | 0.978 | > 5 | 0.976 | > 10 | 0.987 | > 4 | 0.969 | > 2
CL-34 (large intestine, adherent) |  |  | 0.987 | > 2 | 0.744 | 3.39 | 0.984 | > 10 | 0.984 | > 5 | 0.986 | > 10 | 0.902 | > 4 | 0.98 | > 2
D-423MG (glioma, adherent) | 0.945 | > 20 | 0.934 | > 2 | 0.733 | 3.41 | 0.981 | > 10 | 0.923 | > 5 | 0.755 | 4.07 | 0.935 | > 4 | 0.978 | > 2
D-566MG (glioma, adherent) | 0.911 | > 20 | 0.869 | 1.79 | 0.701 | 2.28 | 0.986 | > 10 | 0.801 | 2.39 | 0.849 | 7.34 | 0.939 | > 4 | 0.963 | > 2
DIFI (large intestine, adherent) |  |  | 0.988 | > 2 | 0.819 | 6.01 | 0.987 | > 10 | 0.988 | > 5 | 0.982 | > 10 | 0.906 | > 4 | 0.988 | > 2
ESO26 (oesophagus, adherent) | 0.589 | 2.16 | 0.987 | > 2 | 0.815 | 5.09 | 0.988 | > 10 | 0.989 | > 5 | 0.973 | > 10 | 0.988 | > 4 | 0.985 | > 2
ESO51 (oesophagus, semi-adherent) | 0.969 | > 20 | 0.851 | > 2 | 0.888 | > 10 | 0.826 | 9.8 | 0.908 | > 5 | 0.963 | > 10 | 0.977 | > 4 | 0.82 | 1.82
EW-22 (Ewing sarcoma, adherent) |  |  | 0.94 | > 2 | 0.653 | 1.63 | 0.977 | > 10 | 0.879 | 4.77 | 0.728 | 2.7 | 0.789 | 1.7 | 0.988 | > 2
HCC202 (breast, adherent) | 0.751 | 9.08 | 0.98 | > 2 | 0.885 | > 10 | 0.981 | > 10 | 0.948 | > 5 | 0.95 | > 10 | 0.973 | > 4 | 0.98 | > 2
HCC-366 (non-small cell lung carcinoma, adherent) |  |  | 0.988 | > 2 | 0.885 | > 10 | 0.987 | > 10 | 0.988 | > 5 | 0.952 | > 10 | 0.916 | > 4 | 0.988 | > 2
Jurkat (T-cell leukaemia, suspension) |  |  | 0.992 | > 2 | 0.829 | 4.76 | 0.992 | > 10 |  |  |  |  | 0.975 | > 4 | 0.981 | > 2
KATOIII (stomach, semi-adherent) |  |  | 0.973 | > 2 | 0.728 | 2.6 | 0.961 | > 10 | 0.99 | > 5 | 0.987 | > 10 | 0.803 | 1.78 | 0.98 | > 2
KYAE-1 (oesophagus, suspension) | 0.943 | > 20 | 0.955 | > 2 | 0.811 | 6.03 | 0.976 | > 10 | 0.972 | > 5 | 0.966 | > 10 | 0.966 | > 4 | 0.94 | > 2
MKN7 (stomach, adherent) |  |  | 0.966 | > 2 | 0.924 | > 10 | 0.979 | > 10 | 0.982 | > 5 | 0.978 | > 10 | 0.982 | > 4 | 0.981 | > 2
NCC010 (kidney, adherent) |  |  | 0.977 | > 2 | 0.773 | 4.17 | 0.896 | > 10 | 0.986 | > 5 | 0.977 | > 10 | 0.903 | > 4 | 0.986 | > 2
